Assays:
CCR2-AT2R Heterodimer = molecular target: T1, CCR2-AT2R Heterodimer (Homo sapiens, UniProt P41597+P50052); assay: eBRET beta-arrestin 2 recruitment, cells expressing AT2R/Rluc8 and barr2/Venus with CCR2; type: cell-based; details: 10^−7M MCP1; HEK293FT cells co-expressing AT2R/Rluc8, barr2/Venus and CCR2; after about 50 minutes
T1 construct: expressed in transfected cells; host or cells: HEK293FT

CCR2-AT1R Heterodimer = molecular target: T2, CCR2-AT1R Heterodimer (Homo sapiens, UniProt P30556+P41597); assay: eBRET beta-arrestin 2 recruitment, cells expressing AT1R/Rluc8 and barr2/Venus with CCR2; type: cell-based; details: 10^−7M MCP1; HEK293FT cells co-expressing AT1R/Rluc8, barr2/Venus and CCR2; 37 C
T2 construct: expressed in transfected cells; host or cells: HEK293FT

monocyte chemotactic protein-1 [MCP1]
eBRET signal (ligand-induced BRET ratio) (CCR2-AT2R Heterodimer): approximately 0.16
eBRET signal (ligand-induced BRET ratio) (CCR2-AT1R Heterodimer): approximately 0.05

Reference: US20120100130A1, “Novel Receptor Hetero-Dimers/-Oligomers” (DIMERIX BIOSCIENCE PTY LTD., priority 2009, published 2012)
